Results taken from the supplement of paper PMC4604168 (melanoma cell lines).
The other results are listed elsewhere or left out. Repeats are few or missing, and single values can be far off.

What was measured:
Test in all cases: cell count relative to DMSO control; melanoma cells; higher = more viable cells
Conditions in all cases: library dose: standard library concentration; 72 h
G361 = test system: G361
IPC-298 = test system: IPC-298
IST-MEL1 = test system: IST-MEL1
LOXIMVI = test system: LOXIMVI
MEL-HO = test system: MEL-HO
MeWo = test system: MeWo
RPMI7951 = test system: RPMI7951
RVH-421 = test system: RVH-421
LB2518-MEL = test system: LB2518-MEL
MZ2-MEL = test system: MZ2-MEL
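Also: cells treated in 1,536-well plates, then fixed and DAPI-stained, with nuclei counted from automated high-throughput microscope images.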

SMILES	cell count (G361) [%]	cell count (IPC-298) [%]	cell count (IST-MEL1) [%]	cell count (LOXIMVI) [%]	cell count (MEL-HO) [%]	cell count (MeWo) [%]	cell count (RPMI7951) [%]	cell count (RVH-421) [%]	cell count (LB2518-MEL) [%]	cell count (MZ2-MEL) [%]
CN1CCN(c2ccc3nc(-c4c(N)c5c(F)cccc5[nH]c4=O)[nH]c3c2)CC1 [Dovitinib] + Cc1cc(SCc2sc(-c3ccc(C(F)(F)F)c(F)c3)nc2C)ccc1OCC(=O)O [GW0742] (first compound 0.5 µM, partner dose 10 µM)	66.2	97.4	81.7	107	77.4	78.2	105	99.5	–	–
O=C(O)c1ccc2c(c1)nc(Nc1cccc(Cl)c1)c1ccncc12 + Cc1cc(SCc2sc(-c3ccc(C(F)(F)F)c(F)c3)nc2C)ccc1OCC(=O)O [GW0742] (first compound 2 µM, partner dose 10 µM)	71.9	62.8	85.6	72.8	53	79.6	62.4	74.8	85.5	71.2
Cn1c(Nc2ccc(C(F)(F)F)cc2)nc2cc(Oc3ccnc(-c4ncc(C(F)(F)F)[nH]4)c3)ccc21 + Cc1cc(SCc2sc(-c3ccc(C(F)(F)F)c(F)c3)nc2C)ccc1OCC(=O)O [GW0742] (first compound 0.4 µM, partner dose 10 µM)	34.6	58	66.2	72.3	64.9	77.6	64.4	74.9	29.9	55.5
C=CCn1c(=O)c2cnc(Nc3ccc(N4CCN(C)CC4)cc3)nc2n1-c1cccc(C(C)(C)O)n1 + C/C(O)=C(\C#N)C(=O)Nc1cc(Br)ccc1Br [LFM-A13] (first compound 0.1 µM, partner dose 10 µM)	90	74	108	69.1	84.7	79.2	63.5	90.4	–	–
O=C(O)c1ccc2c(c1)nc(Nc1cccc(Cl)c1)c1ccncc12 + O=C(Oc1ccc([N+](=O)[O-])cc1)N1CCC(C(O)(c2ccc3c(c2)OCO3)c2ccc3c(c2)OCO3)CC1 [JZL184] (first compound 2 µM, partner dose 5 µM)	82.3	81.4	93.7	83.1	66.2	86.5	62.5	90.2	123	79.3
CO[C@H]1C[C@@H]2CC[C@@H](C)[C@@](O)(O2)C(=O)C(=O)N2CCCC[C@H]2C(=O)O[C@H]([C@H](C)C[C@@H]2CC[C@@H](OCCO)[C@H](OC)C2)CC(=O)[C@H](C)/C=C(\C)[C@@H](O)[C@@H](OC)C(=O)[C@H](C)C[C@H](C)/C=C/C=C/C=C/1C [everolimus] + O=C(Oc1ccc([N+](=O)[O-])cc1)N1CCC(C(O)(c2ccc3c(c2)OCO3)c2ccc3c(c2)OCO3)CC1 [JZL184] (first compound 0.1 µM, partner dose 5 µM)	78.9	74.9	88.8	88.9	80.2	75.7	79.5	94	–	–
O=C(CCCCCCC(=O)Nc1ccccc1)NO [vorinostat] + Cc1cc(SCc2sc(-c3ccc(C(F)(F)F)c(F)c3)nc2C)ccc1OCC(=O)O [GW0742] (first compound 0.4 µM, partner dose 10 µM)	85	91.8	90.8	85	90.6	87.9	106	114	90.5	96.4
C#Cc1cccc(Nc2ncnc3cc(OCCOC)c(OCCOC)cc23)c1 [erlotinib] + C/C(O)=C(\C#N)C(=O)Nc1cc(Br)ccc1Br [LFM-A13] (first compound 4 µM, partner dose 10 µM)	75.9	64.3	97.9	80.6	74.2	77	62.1	87	59.8	78.6
Cc1cc(Nc2cc(N3CCN(C)CC3)nc(Sc3ccc(NC(=O)C4CC4)cc3)n2)n[nH]1 [Tozasertib] + C/C(O)=C(\C#N)C(=O)Nc1cc(Br)ccc1Br [LFM-A13] (first compound 0.03 µM, partner dose 10 µM)	104	84.2	92	64.7	82.4	80.9	93.8	113	88.7	65.2
Nc1ccn([C@@H]2O[C@H](CO)[C@@H](O)C2(F)F)c(=O)n1 [gemcitabine] + O=C(Oc1ccc([N+](=O)[O-])cc1)N1CCC(C(O)(c2ccc3c(c2)OCO3)c2ccc3c(c2)OCO3)CC1 [JZL184] (first compound 0.002 µM, partner dose 5 µM)	47.8	47.1	40.3	66.3	50	39.8	54.7	69.7	64.7	85.7
Cc1nc(Nc2ncc(C(=O)Nc3c(C)cccc3Cl)s2)cc(N2CCN(CCO)CC2)n1 [dasatanib] + Cc1cc(SCc2sc(-c3ccc(C(F)(F)F)c(F)c3)nc2C)ccc1OCC(=O)O [GW0742] (first compound 0.02 µM, partner dose 10 µM)	84.7	95.1	79.6	31.9	80	86.4	46.4	58.4	84.6	59.7
COc1ccc(COc2ccc(Cc3cnc(N)nc3N)cc2OC)cc1 + O=C(Oc1ccc([N+](=O)[O-])cc1)N1CCC(C(O)(c2ccc3c(c2)OCO3)c2ccc3c(c2)OCO3)CC1 [JZL184] (first compound 5 µM, partner dose 5 µM)	78.9	92.9	92.4	96.2	87.8	88.9	71.2	100	–	–
O=C(O)C(=O)Nc1sc2c(c1C(=O)O)CCNC2 + C/C(O)=C(\C#N)C(=O)Nc1cc(Br)ccc1Br [LFM-A13] (first compound 8.33333 µM, partner dose 10 µM)	110	95.6	110	112	83.5	77.3	104	128	122	78.9
CO[C@H]1C[C@@H]2CC[C@@H](C)[C@@](O)(O2)C(=O)C(=O)N2CCCC[C@H]2C(=O)O[C@H]([C@H](C)C[C@@H]2CC[C@@H](OCCO)[C@H](OC)C2)CC(=O)[C@H](C)/C=C(\C)[C@@H](O)[C@@H](OC)C(=O)[C@H](C)C[C@H](C)/C=C/C=C/C=C/1C [everolimus] + C/C(O)=C(\C#N)C(=O)Nc1cc(Br)ccc1Br [LFM-A13] (first compound 0.1 µM, partner dose 10 µM)	59	78.5	75.9	89.7	60.1	81.6	76.5	82.7	68.3	78.1
C[C@@H]1CCN(C(=O)CC#N)C[C@@H]1N(C)c1ncnc2[nH]ccc12 + O=C(Oc1ccc([N+](=O)[O-])cc1)N1CCC(C(O)(c2ccc3c(c2)OCO3)c2ccc3c(c2)OCO3)CC1 [JZL184] (first compound 5 µM, partner dose 5 µM)	94.1	114	106	109	95.8	105	83.8	116	–	–
C[C@@H]1CCN(C(=O)CC#N)C[C@@H]1N(C)c1ncnc2[nH]ccc12 + C/C(O)=C(\C#N)C(=O)Nc1cc(Br)ccc1Br [LFM-A13] (first compound 5 µM, partner dose 10 µM)	103	86.3	89.5	66.2	86.1	117	111	33.7	104	90.7
Nc1ccn([C@@H]2O[C@H](CO)[C@@H](O)C2(F)F)c(=O)n1 [gemcitabine] + Cc1cc(SCc2sc(-c3ccc(C(F)(F)F)c(F)c3)nc2C)ccc1OCC(=O)O [GW0742] (first compound 0.002 µM, partner dose 10 µM)	49.5	50.6	50.7	102	66.5	44.6	60.5	65.8	–	–
Cc1cc(Nc2cc(N3CCN(C)CC3)nc(Sc3ccc(NC(=O)C4CC4)cc3)n2)n[nH]1 [Tozasertib] + Cc1cc(SCc2sc(-c3ccc(C(F)(F)F)c(F)c3)nc2C)ccc1OCC(=O)O [GW0742] (first compound 0.03 µM, partner dose 10 µM)	78.9	99.8	85.2	68.1	88.8	65.3	88.3	109	–	–
Cc1nc(Nc2ncc(C(=O)Nc3c(C)cccc3Cl)s2)cc(N2CCN(CCO)CC2)n1 [dasatanib] + C/C(O)=C(\C#N)C(=O)Nc1cc(Br)ccc1Br [LFM-A13] (first compound 0.02 µM, partner dose 10 µM)	76.5	87.6	70.6	31.5	68.9	86.7	32.2	70.7	76.9	12.2
O=C(CCCCCCC(=O)Nc1ccccc1)NO [vorinostat] + O=C(Oc1ccc([N+](=O)[O-])cc1)N1CCC(C(O)(c2ccc3c(c2)OCO3)c2ccc3c(c2)OCO3)CC1 [JZL184] (first compound 0.4 µM, partner dose 5 µM)	71.1	81.1	111	92.4	82.8	72.4	64.7	86.3	–	–
